Assay results taken from PubChem BioAssay AID602233 (National Center for Advancing Translational Sciences (NCATS), 2012).
Hit rate of the full screen: of about 380,000 compounds, about 170 (0.045%) were called active. Inconclusive results, whose numbers are uncertain, are shown with a selection of clear calls. Calls come from the whole dose curve; as a rule, active = well fitted inhibition curve with a large enough effect; inconclusive = small, poorly fitted or top-dose-only effect; inactive = no such curve, though single readings can be large or run the other way. Potencies of inconclusive entries are left out as doubtful fits.
Note: nearly all actives have a fitted effect of over 60% in size.
Potency is the fitted concentration of half-maximal effect; tags give direction and shape of the fitted curve.

The compounds below were run against Phosphoglycerate kinase, glycosomal (Trypanosoma brucei brucei) (UniProt P07378) (assay: qHTS Assay to Find Inhibitors of Phosphoglycerate Kinase). Details: PGK/GAPDH coupled, Kinase-Glo luminescence, 60 min; series mostly up to 57.5 µM; activity change, negative = inhibition: at the top concentration.
Text: Several species of the Trypanosomatidae family of parasitic protozoans cause a spectrum of diseases throughout the tropical and subtropical world. Sleeping sickness, caused by two subspecies of Trypanosoma brucei, is endemic to areas of sub-Saharan Africa, while Chagas disease, a manifestation of Trypanosoma cruzi infection, is prevalent throughout Central and South America. In addition, many species of Leishmania are responsible for a range of cutaneous and visceral diseases, causing ulcers, destructive lesions and kalaazar, a lethal infection of the viscera. Collectively, these organisms infect 30 million people worldwide (~500 million live in endemic areas), and account for ~130,000 deaths annually. Given their debilitating and prevalent nature, trypanosomatid parasites impose a heavy medical, economic and social burden on entire populations, primarily in the developing world. The problem is further exacerbated by the fact that existing treatments have progressed little in the past 50 years, and current drugs show high toxicity and poor efficacy. […] Blood-stream stages of T. brucei are entirely dependent on glycolysis as a source of ATP, and the tricarboxylic acid cycle and oxidative phosphorylation are both repressed. Glycolysis in axenically cultured T. cruzi, representing the intracellular pathogenic stage, is also essential for these parasites. […] Previous studies have shown that the glycolytic enzyme, phosphoglycerate kinase (PGK), is a viable target for drugs to kill these parasites. […] NIH Molecular Libraries Probe Production Network [MLPCN] NIH Chemical Genomics Center [NCGC] MLPCN Grant: R03 MH093212 PI Name: Malcolm Walkinshaw, University of Edinburgh
3ul of substrate/PGK buffer (columns 1,2,5-48) are dispensed into Greiner white solid bottom 1536-well assay plates; columns 3-4 receive only TEA buffer as 0x PGK controls. Compounds are then transferred via Kalypsys pin tool equipped with 1536-pin array (10nl slotted pins, V&P Scientific, San Diego, CA). Following addition of compound, 1ul of GAPDH (100nM final concentration, all columns) is added to initiate the reaction (this upstream coupling enzyme is necessary for in-well production of PGK substrate, 1,3-bisphosphoglycerate (1,3-BPG), which is unstable and not commercially available). The plates are then incubated at room temperature for 60 minutes. Kinase-Glo Plus reagent is added (2ul) and plates incubated for 10 minutes, before being transferred to a ViewLux high-throughput CCD imager (PerkinElmer) wherein single end-point measurements of luminescence are acquired using a clear filter. All reagents are diluted in an assay buffer consisting of 100mM TEA (pH 7.6), 5mM MgCl2 and 0.01% Tween-20.
With CCOc1ccc2nc(NC(=O)c3ccoc3C)sc2c1 the Potency was inconclusive [inhibitor, partial curve].
In the case of CC(NC(=O)/C(C#N)=C/c1ccco1)c1ccccc1 (stereo not given), the “activity change, negative = inhibition” value is reported as inactive: -4.73%.
In the case of CN(CCC#N)C(=O)COC(=O)c1c2c(nc3ccccc13)/C(=C/c1ccco1)CC2, the Potency is reported as inconclusive [inhibitor, single point].
COc1cccc(NC(=O)Nc2nc(-c3ccc(OC)c(OC)c3)cs2)c1 was tested, and the “activity change, negative = inhibition” value was inactive: 11.1%.
For O=C(O)c1ccc(N2C(=O)c3cccc4c(C(=O)O)ccc(c34)C2=O)cc1, the Potency was inconclusive [inhibitor, partial curve, poor fit].
With Cc1nnc(-c2cccc(Br)c2)c2cn(-c3cccc(Br)c3)nc12 the “activity change, negative = inhibition” value was inactive: -4.66%.
For CCOC(=O)c1c(NC(=O)C2C3C=CC(C3)C2(C)C(=O)O)sc2c1CCCC2 (stereo not given), the Potency was inconclusive [inhibitor, partial curve, poor fit].
For COc1ccccc1NCc1nnc2n1CCCCC2, the Potency was inconclusive [inhibitor, single point].
In the case of C#Cc1ccc([C@@H]2C=C(C(=O)O)O[C@H](OCC)[C@H]2CCCO)cc1, the Potency is reported as inconclusive [inhibitor, partial curve, poor fit].
In the case of CCOc1ccc(/C=C2\SC(=S)NC2=O)cc1OC, the “activity change, negative = inhibition” value is reported as inactive: 0.842%.
In the case of COC(=O)c1cc(O)cc(OC)c1Oc1cc(C)cc(O)c1C(=O)O, the Potency is reported as inconclusive [inhibitor, full curve, poor fit].
In the case of O=C(O)COc1ccc(/C=N/NC(=O)c2ccc(-c3csc(Nc4ccc(Cl)cc4)n3)cc2)cc1, the Potency is reported as inconclusive [inhibitor, full curve, poor fit].
In the case of NC(=O)c1c(NC(=O)C2CC=CCC2C(=O)O)sc2c1CCCCC2 (stereo not given), the Potency is reported as inconclusive [inhibitor, partial curve].
With CCOC(=O)N1CCN(c2cc(NCCC(=O)O)c3c4c(onc24)-c2ccccc2C3=O)CC1 the Potency was inconclusive [inhibitor, partial curve].
With O=C(c1ccc(Cl)cc1)C(CN1CCCCC1)c1ccccc1 (stereo not given) the “activity change, negative = inhibition” value was inactive: -0.853%.
With O=C(Nc1ccc(N2CCOCC2)cc1)c1cn2ccccc2n1 the Potency was inconclusive [inhibitor, partial curve, poor fit].
O=C(Nc1cc(Cl)cc(Cl)c1)c1coc(=O)c(Br)c1 was tested, and the “activity change, negative = inhibition” value was inactive: -16.7%.
Cc1cc(C)nc(S/C=C/C(=O)c2ccccc2F)n1 was tested, and the “activity change, negative = inhibition” value was inactive: -9.34%.
For O=C(O)c1ccc(CSc2nc3ccc(N4C(=O)C5C6C=CC(C6)C5C4=O)cc3s2)cc1 (stereo not given), the “activity change, negative = inhibition” value was inactive: -9.3%.
For O=C(O)C(c1ccccc1)N1C(=O)/C(=C\c2ccc(-c3cccc(Cl)c3)o2)SC1=S (stereo not given), the Potency was inconclusive [inhibitor, partial curve, poor fit].
